# Results from the supplement of paper PMC8728848.
# The list shows a part of the results.
# Key:
# Assay in all cases: glycan array binding signal (z-score within array); higher = stronger binding
# Conditions in all cases: glycan notation: IUPAC condensed, linker removed
# [1] = biological target: GlcNAc(b1-3)Fuc
# How it was run: (§1)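 The binding signal is a Z-score computed within each array. Data were drawn from 3228 arrays in the Consortium for Functional Glycomics database, restricted to those with a known protein sequence. Scores were averaged over arrays of the same protein sequence at different concentrations or buffers, and over linkers, and negative values can be taken as non-binding.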
# [2] = biological target: GlcNAc(b1-3)Gal
# How it was run: as §1
# [3] = biological target: GlcNAc(b1-3)Gal(b1-3)GalNAc
# How it was run: as §1
# [4] = biological target: GlcNAc(b1-3)Gal(b1-4)Glc
# How it was run: as §1
# [5] = biological target: GlcNAc(b1-3)Gal(b1-4)GlcNAc
# How it was run: as §1
# [6] = biological target: GlcNAc(b1-3)Gal(b1-4)GlcNAc(b1-2)Man(a1-3)[GlcNAc(b1-3)Gal(b1-4)GlcNAc(b1-2)Man(a1-6)]Man(b1-4)GlcNAc(b1-4)GlcNAc
# How it was run: as §1
# [7] = biological target: GlcNAc(b1-3)Gal(b1-4)GlcNAc(b1-2)Man(a1-3)[GlcNAc(b1-3)Gal(b1-4)GlcNAc(b1-2)Man(a1-6)]Man(b1-4)GlcNAc(b1-4)[Fuc(a1-6)]GlcNAc
# How it was run: as §1
# [8] = biological target: GlcNAc(b1-3)Gal(b1-4)GlcNAc(b1-2)[GlcNAc(b1-3)Gal(b1-4)GlcNAc(b1-6)]Man(a1-6)[GlcNAc(b1-3)Gal(b1-4)GlcNAc(b1-2)Man(a1-3)]Man(b1-4)GlcNAc(b1-4)GlcNAc
# How it was run: as §1
# [9] = biological target: GlcNAc(b1-3)Gal(b1-4)GlcNAc(b1-3)Gal(b1-4)GlcNAc
# How it was run: as §1
# [10] = biological target: GlcNAc(b1-3)Gal(b1-4)GlcNAc(b1-3)Gal(b1-4)GlcNAc(b1-2)Man(a1-3)[GlcNAc(b1-3)Gal(b1-4)GlcNAc(b1-3)Gal(b1-4)GlcNAc(b1-2)Man(a1-6)]Man(b1-4)GlcNAc(b1-4)GlcNAc
# How it was run: as §1
# [11] = biological target: GlcNAc(b1-3)Gal(b1-4)GlcNAc(b1-3)Gal(b1-4)GlcNAc(b1-2)Man(a1-3)[GlcNAc(b1-3)Gal(b1-4)GlcNAc(b1-3)Gal(b1-4)GlcNAc(b1-2)Man(a1-6)]Man(b1-4)GlcNAc(b1-4)[Fuc(a1-6)]GlcNAc
# How it was run: as §1
# [12] = biological target: GlcNAc(b1-3)Gal(b1-4)GlcNAc(b1-3)Gal(b1-4)GlcNAc(b1-2)[GlcNAc(b1-3)Gal(b1-4)GlcNAc(b1-3)Gal(b1-4)GlcNAc(b1-6)]Man(a1-6)[GlcNAc(b1-3)Gal(b1-4)GlcNAc(b1-3)Gal(b1-4)GlcNAc(b1-2)Man(a1-3)]Man(b1-4)GlcNAc(b1-4)[Fuc(a1-6)]GlcNAc
# How it was run: as §1
# [13] = biological target: GlcNAc(b1-3)Gal(b1-4)GlcNAc(b1-3)Gal(b1-4)GlcNAc(b1-3)Gal(b1-4)GlcNAc(b1-2)Man(a1-3)[GlcNAc(b1-3)Gal(b1-4)GlcNAc(b1-3)Gal(b1-4)GlcNAc(b1-3)Gal(b1-4)GlcNAc(b1-2)Man(a1-6)]Man(b1-4)GlcNAc(b1-4)GlcNAc
# How it was run: as §1
# [14] = biological target: GlcNAc(b1-3)Gal(b1-4)GlcNAc(b1-3)Gal(b1-4)GlcNAc(b1-3)Gal(b1-4)GlcNAc(b1-2)Man(a1-3)[GlcNAc(b1-3)Gal(b1-4)GlcNAc(b1-3)Gal(b1-4)GlcNAc(b1-3)Gal(b1-4)GlcNAc(b1-2)Man(a1-6)]Man(b1-4)GlcNAc(b1-4)[Fuc(a1-6)]GlcNAc
# How it was run: as §1
# [15] = biological target: GlcNAc(b1-3)Gal(b1-4)GlcNAc(b1-3)Gal(b1-4)GlcNAc(b1-3)Gal(b1-4)GlcNAc(b1-2)[GlcNAc(b1-3)Gal(b1-4)GlcNAc(b1-3)Gal(b1-4)GlcNAc(b1-3)Gal(b1-4)GlcNAc(b1-6)]Man(a1-6)[GlcNAc(b1-3)Gal(b1-4)GlcNAc(b1-3)Gal(b1-4)GlcNAc(b1-3)Gal(b1-4)GlcNAc(b1-2)Man(a1-3)]Man(b1-4)GlcNAc(b1-4)[Fuc(a1-6)]GlcNAc
# How it was run: as §1
# [16] = biological target: GlcNAc(b1-3)Gal(b1-4)GlcNAc(b1-3)Gal(b1-4)GlcNAc(b1-3)Gal(b1-4)GlcNAc(b1-3)Gal(b1-4)GlcNAc(b1-2)Man(a1-3)[GlcNAc(b1-3)Gal(b1-4)GlcNAc(b1-3)Gal(b1-4)GlcNAc(b1-3)Gal(b1-4)GlcNAc(b1-3)Gal(b1-4)GlcNAc(b1-2)Man(a1-6)]Man(b1-4)GlcNAc(b1-4)GlcNAc
# How it was run: as §1
# [17] = biological target: GlcNAc(b1-3)Gal(b1-4)GlcNAc(b1-3)Gal(b1-4)GlcNAc(b1-3)Gal(b1-4)GlcNAc(b1-3)Gal(b1-4)GlcNAc(b1-2)Man(a1-3)[GlcNAc(b1-3)Gal(b1-4)GlcNAc(b1-3)Gal(b1-4)GlcNAc(b1-3)Gal(b1-4)GlcNAc(b1-3)Gal(b1-4)GlcNAc(b1-2)Man(a1-6)]Man(b1-4)GlcNAc(b1-4)[Fuc(a1-6)]GlcNAc
# How it was run: as §1
# [18] = biological target: GlcNAc(b1-3)Gal(b1-4)GlcNAc(b1-3)Gal(b1-4)GlcNAc(b1-3)Gal(b1-4)GlcNAc(b1-3)Gal(b1-4)GlcNAc(b1-2)[GlcNAc(b1-3)Gal(b1-4)GlcNAc(b1-3)Gal(b1-4)GlcNAc(b1-3)Gal(b1-4)GlcNAc(b1-3)Gal(b1-4)GlcNAc(b1-6)]Man(a1-6)[GlcNAc(b1-3)Gal(b1-4)GlcNAc(b1-3)Gal(b1-4)GlcNAc(b1-3)Gal(b1-4)GlcNAc(b1-3)Gal(b1-4)GlcNAc(b1-2)Man(a1-3)]Man(b1-4)GlcNAc(b1-4)[Fuc(a1-6)]GlcNAc
# How it was run: as §1
# [19] = biological target: GlcNAc(b1-3)Gal(b1-4)GlcNAc(b1-3)Gal(b1-4)GlcNAc(b1-3)GalNAc
# How it was run: as §1
# [20] = biological target: GlcNAc(b1-3)Gal(b1-4)GlcNAc(b1-3)GalNAc
# How it was run: as §1
# [21] = biological target: GlcNAc(b1-3)Gal(b1-4)GlcNAc(b1-3)[GlcNAc(b1-3)Gal(b1-4)GlcNAc(b1-3)]GalNAc
# How it was run: as §1
# [22] = biological target: GlcNAc(b1-3)Gal(b1-4)GlcNAc(b1-6)[Gal(b1-3)]GalNAc
# How it was run: as §1
# [23] = biological target: GlcNAc(b1-3)Gal(b1-4)GlcNAc(b1-6)[GlcNAc(b1-3)Gal(b1-3)]GalNAc
# How it was run: as §1
# [24] = biological target: GlcNAc(b1-3)Gal(b1-4)GlcNAc(b1-6)[GlcNAc(b1-3)]Gal(b1-4)GlcNAc
# How it was run: as §1
# [25] = biological target: GlcNAc(b1-3)GalNAc
# How it was run: as §1
# [26] = biological target: GlcNAc(b1-3)Man
# How it was run: as §1
# [27] = biological target: GlcNAc(b1-3)[GlcNAc(b1-4)][GlcNAc(b1-6)]GlcNAc
# How it was run: as §1
# [28] = biological target: GlcNAc(b1-3)[GlcNAc(b1-6)]Gal(b1-4)GlcNAc
# How it was run: as §1
# [29] = biological target: GlcNAc(b1-3)[GlcNAc(b1-6)]GalNAc
# How it was run: as §1
# [30] = biological target: GlcNAc(b1-4)Gal(b1-4)GlcNAc
# How it was run: as §1
# [31] = biological target: GlcNAc(b1-4)GlcNAc
# How it was run: as §1
# [32] = biological target: GlcNAc(b1-4)GlcNAc(b1-4)GlcNAc
# How it was run: as §1
# [33] = biological target: GlcNAc(b1-4)GlcNAc(b1-4)GlcNAc(b1-4)GlcNAc(b1-4)GlcNAc
# How it was run: as §1
# [34] = biological target: GlcNAc(b1-4)GlcNAc(b1-4)GlcNAc(b1-4)GlcNAc(b1-4)GlcNAc(b1-4)GlcNAc
# How it was run: as §1
# [35] = biological target: GlcNAc(b1-4)[GlcNAc(b1-6)]GalNAc
# How it was run: as §1
# [36] = biological target: GlcNAc(b1-6)Gal(b1-4)GlcNAc
# How it was run: as §1
# [37] = biological target: GlcNAc(b1-6)GalNAc
# How it was run: as §1
# [38] = biological target: GlcNAc3Prop(b1-4)GlcNAc
# How it was run: as §1
# [39] = biological target: GlcNAc6S(b1-3)Gal(b1-4)GlcNAc
# How it was run: as §1
# [40] = biological target: Kdn(a2-3)Gal(b1-3)GalNAc
# How it was run: as §1
# [41] = biological target: Kdn(a2-3)Gal(b1-3)GlcNAc
# How it was run: as §1
# [42] = biological target: Kdn(a2-3)Gal(b1-4)Glc
# How it was run: as §1
# [43] = biological target: Kdn(a2-3)Gal(b1-4)GlcNAc
# How it was run: as §1
# [44] = biological target: Kdn(a2-3)Gal(b1-4)[Fuc(a1-3)]GlcNAc
# How it was run: as §1
# [45] = biological target: Kdn(a2-6)Gal(b1-4)GlcNAc
# How it was run: as §1
binder,measurement,setting,value
"PA-IL (Pseudomonas aeruginosa), Q05097 (protein) MAWKGEVLANNEAGQVTSIIYNPGDVITIVAAGWASYGPTQKWGPQGDREHPDQGLICHDAFCGALVMKIGNSGTIPVNTGLFRWVAPNNVQGAITLIYNDVPGTYGNNSGSFSVNIGKDQS",glycan array binding signal (z-score),[1],-0.215
same,glycan array binding signal (z-score),[2],-0.228
same,glycan array binding signal (z-score),[3],-0.231
same,glycan array binding signal (z-score),[4],-0.213
same,glycan array binding signal (z-score),[5],-0.226
same,glycan array binding signal (z-score),[6],-0.22
same,glycan array binding signal (z-score),[7],-0.226
same,glycan array binding signal (z-score),[8],-0.164
same,glycan array binding signal (z-score),[9],-0.21
same,glycan array binding signal (z-score),[10],-0.082
same,glycan array binding signal (z-score),[11],-0.226
same,glycan array binding signal (z-score),[12],-0.204
same,glycan array binding signal (z-score),[13],-0.216
same,glycan array binding signal (z-score),[14],-0.198
same,glycan array binding signal (z-score),[15],-0.211
same,glycan array binding signal (z-score),[16],-0.188
same,glycan array binding signal (z-score),[17],-0.235
same,glycan array binding signal (z-score),[18],-0.184
same,glycan array binding signal (z-score),[19],-0.22
same,glycan array binding signal (z-score),[20],-0.221
same,glycan array binding signal (z-score),[21],-0.227
same,glycan array binding signal (z-score),[22],-0.246
same,glycan array binding signal (z-score),[23],-0.234
same,glycan array binding signal (z-score),[24],-0.232
same,glycan array binding signal (z-score),[25],-0.226
same,glycan array binding signal (z-score),[26],-0.225
same,glycan array binding signal (z-score),[27],-0.228
same,glycan array binding signal (z-score),[28],-0.235
same,glycan array binding signal (z-score),[29],-0.229
same,glycan array binding signal (z-score),[30],-0.237
same,glycan array binding signal (z-score),[31],-0.232
same,glycan array binding signal (z-score),[32],-0.233
same,glycan array binding signal (z-score),[33],-0.228
same,glycan array binding signal (z-score),[34],-0.23
same,glycan array binding signal (z-score),[35],-0.232
same,glycan array binding signal (z-score),[36],-0.223
same,glycan array binding signal (z-score),[37],-0.227
same,glycan array binding signal (z-score),[38],-0.225
same,glycan array binding signal (z-score),[39],-0.231
same,glycan array binding signal (z-score),[40],-0.204
same,glycan array binding signal (z-score),[41],-0.228
same,glycan array binding signal (z-score),[42],-0.216
same,glycan array binding signal (z-score),[43],-0.224
same,glycan array binding signal (z-score),[44],-0.217
same,glycan array binding signal (z-score),[45],-0.225
